{
  "source": "patent US9873709B2",
  "about": "(priority 2013, dated 2018)",
  "note": "pKi: −log10 of the molar value.",
  "data": [
    {"molecular_target": "isolated recombinant JAK1 kinase domain (Homo sapiens (Human), UniProt P23458)", "sequence (P23458 875-1153)": "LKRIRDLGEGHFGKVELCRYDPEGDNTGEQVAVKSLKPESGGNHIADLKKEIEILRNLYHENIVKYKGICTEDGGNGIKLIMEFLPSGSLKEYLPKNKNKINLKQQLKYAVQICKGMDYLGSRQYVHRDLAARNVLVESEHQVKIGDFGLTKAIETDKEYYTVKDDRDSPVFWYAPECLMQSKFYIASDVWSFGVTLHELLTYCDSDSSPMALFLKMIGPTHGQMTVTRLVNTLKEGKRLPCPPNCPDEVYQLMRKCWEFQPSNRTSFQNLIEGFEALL", "conditions": "read-out: JAK1 Ki; isolated recombinant JAK1 kinase domain, 25 μM ATP", "values": [
      {"compound": "O=C(c1ccc(Nc2nc3c(N4CCC(O)(c5ccc(Cl)cc5)CC4)cccn3n2)cc1)N1CCC(Cc2cccnc2)CC1", "note": "[Example 1-145, [4-[[8-[4-(4-chlorophenyl)-4-hydroxy-1-piperidyl]-[1,2,4]triazolo[1,5-a]pyridin-2-yl]amino]phenyl]-[4-(3-pyridylmethyl)-1-piperidyl]methanone]", "pKi": 8.24},
      {"compound": "O=C(c1ccc(Nc2nc3c(N4CCC(O)(c5ccc(Cl)cc5)CC4)cccn3n2)cc1)N1CCC(Cc2ccncc2)C1", "note": "(centres unmarked) [Example 1-146, [4-[[8-[4-(4-chlorophenyl)-4-hydroxy-1-piperidyl]-[1,2,4]triazolo[1,5-a]pyridin-2-yl]amino]phenyl]-[3-(4-pyridylmethyl)pyrrolidin-1-yl]methanone]", "pKi": 8.52},
      {"compound": "O=C(c1ccc(Nc2nc3c(N4CCC(O)(c5ccc(Cl)cc5)CC4)cccn3n2)cc1)N1CCCC1c1ccncc1", "note": "(centres unmarked) [Example 1-147, [4-[[8-[4-(4-chlorophenyl)-4-hydroxy-1-piperidyl]-[1,2,4]triazolo[1,5-a]pyridin-2-yl]amino]phenyl]-[2-(4-pyridyl)pyrrolidin-1-yl]methanone]", "pKi": 8.68},
      {"compound": "O=C(c1ccc(Nc2nc3c(N4CCC(O)(c5ccc(Cl)cc5)CC4)cccn3n2)cc1)N1CCOC(c2ccccn2)C1", "note": "(centres unmarked) [Example 1-148, [4-[[8-[4-(4-chlorophenyl)-4-hydroxy-1-piperidyl]-[1,2,4]triazolo[1,5-a]pyridin-2-yl]amino]phenyl]-[2-(2-pyridyl)morpholin-4-yl]methanone]", "pKi": 8.25},
      {"compound": "O=C(c1ccc(Nc2nc3c(N4CCC(O)(c5ccc(Cl)cc5)CC4)cccn3n2)cc1)N1CCCC(c2ccccn2)C1", "note": "(centres unmarked) [Example 1-149, [4-[[8-[4-(4-chlorophenyl)-4-hydroxy-1-piperidyl]-[1,2,4]triazolo[1,5-a]pyridin-2-yl]amino]phenyl]-[3-(2-pyridyl)-1-piperidyl]methanone]", "pKi": 8.05},
      {"compound": "CNC(=O)C1CN(C(=O)c2ccc(Nc3nc4c(N5CCC(O)(c6ccc(Cl)cc6)CC5)cccn4n3)cc2)CCN1CCc1ccccc1", "note": "(centres unmarked) [Example 1-150]", "pKi": 8.25},
      {"compound": "CN(C)c1cc(CC2CCN(C(=O)c3ccc(Nc4nc5c(N6CCC(O)(c7ccc(Cl)cc7)CC6)cccn5n4)cc3)C2)ncn1", "note": "(centres unmarked) [Example 1-151, [4-[[8-[4-(4-chlorophenyl)-4-hydroxy-1-piperidyl]-[1,2,4]triazolo[1,5-a]pyridin-2-yl]amino]phenyl]-[3-[[6-(dimethylamino)pyrimidin-4-yl]methyl]pyrrolidin-1-yl]methanone]", "pKi": 8.55},
      {"compound": "CNC(=O)C1CN(C)CCN1C(=O)c1ccc(Nc2nc3c(N4CCC(O)(c5ccc(Cl)cc5)CC4)cccn3n2)cc1", "note": "(centres unmarked) [Example 1-152, 1-[4-[[8-[4-(4-chlorophenyl)-4-hydroxy-1-piperidyl]-[1,2,4]triazolo[1,5-a]pyridin-2-yl]amino]benzoyl]-N,4-dimethyl-piperazine-2-carboxamide]", "pKi": 8.55},
      {"compound": "CNC(=O)C1CN(C(=O)c2ccc(Nc3nc4c(N5CCC(O)(c6ccc(Cl)cc6)CC5)cccn4n3)cc2)CCN1Cc1ccccc1", "note": "(centres unmarked) [Example 1-153, 1-benzyl-4-[4-[[8-[4-(4-chlorophenyl)-4-hydroxy-1-piperidyl]-[1,2,4]triazolo[1,5-a]pyridin-2-yl]amino]benzoyl]-N-methyl-piperazine-2-carboxamide]", "pKi": 8.61},
      {"compound": "CN1CCC(CCNC(=O)c2ccc(Nc3nc4c(N5CCC(O)(c6ccc(Cl)cc6)CC5)cccn4n3)cc2)CC1", "note": "[Example 1-154, 4-[[8-[4-(4-chlorophenyl)-4-hydroxy-1-piperidyl]-[1,2,4]triazolo[1,5-a]pyridin-2-yl]amino]-N-[2-(1-methyl-4-piperidyl)ethyl]benzamide]", "pKi": 8.70},
      {"compound": "O=C(c1ccc(Nc2nc3c(N4CCC(O)(c5ccc(Cl)cc5)CC4)cccn3n2)cc1)N1CCC(Cc2cccnc2)C1", "note": "(centres unmarked) [Example 1-155, [4-[[8-[4-(4-chlorophenyl)-4-hydroxy-1-piperidyl]-[1,2,4]triazolo[1,5-a]pyridin-2-yl]amino]phenyl]-[3-(3-pyridylmethyl)pyrrolidin-1-yl]methanone]", "pKi": 8.49},
      {"compound": "Cc1ccc(CC2CCN(C(=O)c3ccc(Nc4nc5c(N6CCC(O)(c7ccc(Cl)cc7)CC6)cccn5n4)cc3)C2)nc1", "note": "(centres unmarked) [Example 1-156, [4-[[8-[4-(4-chlorophenyl)-4-hydroxy-1-piperidyl]-[1,2,4]triazolo[1,5-a]pyridin-2-yl]amino]phenyl]-[3-[(5-methyl-2-pyridyl)methyl]pyrrolidin-1-yl]methanone]", "pKi": 8.19},
      {"compound": "O=C(c1ccc(Nc2nc3c(N4CCC(O)(c5ccc(Cl)cc5)CC4)cccn3n2)cc1)N1CCC(Cc2ccccn2)C1", "note": "(centres unmarked) [Example 1-157, [4-[[8-[4-(4-chlorophenyl)-4-hydroxy-1-piperidyl]-[1,2,4]triazolo[1,5-a]pyridin-2-yl]amino]phenyl]-[3-(2-pyridylmethyl)pyrrolidin-1-yl]methanone]", "pKi": 8.43},
      {"compound": "O=C(c1ccc(Nc2nc3c(N4CCC(O)(c5ccc(Cl)cc5)CC4)cccn3n2)cc1)N1CCC(Cc2ccccn2)CC1", "note": "[Example 1-158, [4-[[8-[4-(4-chlorophenyl)-4-hydroxy-1-piperidyl]-[1,2,4]triazolo[1,5-a]pyridin-2-yl]amino]phenyl]-[4-(2-pyridylmethyl)-1-piperidyl]methanone]", "pKi": 8.40},
      {"compound": "Cc1cccc(CCNC(=O)c2ccc(Nc3nc4c(N5CCC(O)(c6ccc(Cl)cc6)CC5)cccn4n3)cc2)n1", "note": "[Example 1-159, 4-[[8-[4-(4-chlorophenyl)-4-hydroxy-1-piperidyl]-[1,2,4]triazolo[1,5-a]pyridin-2-yl]amino]-N-[2-(6-methyl-2-pyridyl)ethyl]benzamide]", "pKi": 8.32},
      {"compound": "O=C(NCCc1ccncc1)c1ccc(Nc2nc3c(N4CCC(O)(c5ccc(Cl)cc5)CC4)cccn3n2)cc1", "note": "[Example 1-161, 4-[[8-[4-(4-chlorophenyl)-4-hydroxy-1-piperidyl]-[1,2,4]triazolo[1,5-a]pyridin-2-yl]amino]-N-[2-(4-pyridyl)ethyl]benzamide]", "pKi": 8.70},
      {"compound": "O=C(NCCc1ccccn1)c1ccc(Nc2nc3c(N4CCC(O)(c5ccc(Cl)cc5)CC4)cccn3n2)cc1", "note": "[Example 1-162, 4-[[8-[4-(4-chlorophenyl)-4-hydroxy-1-piperidyl]-[1,2,4]triazolo[1,5-a]pyridin-2-yl]amino]-N-[2-(2-pyridyl)ethyl]benzamide]", "pKi": 8.54},
      {"compound": "CNC(=O)C1CN(C(=O)c2ccc(Nc3nc4c(N5CCC(O)(c6ccc(Cl)cc6)CC5)cccn4n3)cc2)CCN1C", "note": "(centres unmarked) [Example 1-163, 4-[4-[[8-[4-(4-chlorophenyl)-4-hydroxy-1-piperidyl]-[1,2,4]triazolo[1,5-a]pyridin-2-yl]amino]benzoyl]-N,1-dimethyl-piperazine-2-carboxamide]", "pKi": 8.59},
      {"compound": "CN(C)C(=O)C1CN(C(=O)c2ccc(Nc3nc4c(N5CCC(O)(c6ccc(Cl)cc6)CC5)cccn4n3)cc2)C1", "note": "[Example 1-164, 1-[4-[[8-[4-(4-chlorophenyl)-4-hydroxy-1-piperidyl]-[1,2,4]triazolo[1,5-a]pyridin-2-yl]amino]benzoyl]-N,N-dimethyl-azetidine-3-carboxamide]", "pKi": 9.10},
      {"compound": "CN1CCN(C(=O)C2CN(C(=O)c3ccc(Nc4nc5c(N6CCC(O)(c7ccc(Cl)cc7)CC6)cccn5n4)cc3)C2)CC1", "note": "[Example 1-165, [4-[[8-[4-(4-chlorophenyl)-4-hydroxy-1-piperidyl]-[1,2,4]triazolo[1,5-a]pyridin-2-yl]amino]phenyl]-[3-(4-methylpiperazine-1-carbonyl)azetidin-1-yl]methanone]", "pKi": 9.06}
    ]}
  ]
}
